Data taken from a protein production outcome set (Wang et al. 2014).

Assay: label from the status in PepcDB records

| Sequence | protein production |
| --- | --- |
| MNSAAGFSHLDRRERVLKLGESFEKQPRCAFHTVRYDFKPASIDTSSEGYLEVGEGEQVTITLPNIEGSTPPVTVFKGSKKPYLKECILIINHDTGECRLEKLSSNITVKKTRVEGSSKIQYRKEQQQQQMWNSARTPNLVKHSPSEDKMSPASPIDDIERELKAEASLMDQMSSCDSSSDSKSSSSSSSEDSSSDSEDEDCKSSTSDTGNCVSGHPTMTQYRIPDIDASHNRFRDNSGLLMNTLRNDLQLSESGSDSDD | not failed |
| MAHGPRYRVPFRRRREGKTNYRKRLKLLKSGKPRLVVRKSLNHHIAQIIVYDPKGDRTLVSAHTRELIRDFGWKGHCGNTPSAYLLGLLIGYKAKKAGIEEAILDIGLHPPVRGSSIFAVLKGAIDAGLNVPHSPEIFPEDYRIRGEHIAEYARMLKEQDEDRFRRQFGGYLEKGLDPEKLPEHFEEVKARIIEKFESEGARE | failed |
| MDKNLMMPKRSRIDVKGNFANGPLQARPLVALLDGRDCSIEMPILKDVATVAFCDAQSTSEIHEKVLNEAVGALMWHTIILTKEDLEKFKALRIIVRIGSGTDNIDVKAAGELGIAVCNVPGYGVEEVADTTMCLILNLYRRTYWLANMVREGKKFTGPEQVREAAHGCARIRGDTLGLVGLGRIGSAVALRAKAFGFNVIFYDPYLPDGIDKSLGLTRVYTLQDLLFQSDCVSLHCTLNEHNHHLINEFTIKQMRPGAFLVNTARGGLVDDETLALALKQGRIRAAALDVHENEPYNVFQGALKDAPNLICTPHAAFFSDASATELREMAATEIRRAIVGNIPDVLRNCVNKEYFMRTPPAAAAGGVAAAVYPEGKLQMISNQEK | failed |
